Consider 90 compounds from PubChem BioAssay AID463173 (ICCB-Longwood Screening Facility, Harvard Medical School, 2010).

The campaign covered roughly 52,000 compounds. About 4,300 (8.3%) were called active. No stated cut-off is given here; in the data, active means survival mostly below about 52% (no sharp cut-off); inactive means mostly above about 56%. Some of the results follow.

The test system of this test is DeltatarO mutant. Nature of the test: S. aureus survival, RN4220 and DeltatarO strains – OD600, teichoic acid synthesis inhibitors, primary screen (AID 463173). As to conditions: S. aureus RN4220 wild type/DeltatarO growth, OD600, 18 h, hits give low values, screened at 18.75 µg/mL (by protocol).
On to `Cc1cc(C)c(NC(=O)CSc2nc(=O)n(Cc3cccnc3)c3c2CCC3)c(C)c1`, for which the survival is inactive: 104%.
Turning to `COc1cccc(NC(=O)Cn2nnc(C(=O)NCc3ccc4c(c3)OCO4)c2N)c1`, the survival was inactive: 102%.
For `CCOCCCNC(=O)c1cn(CC(C)C)c(=O)c2c1c1ccccc1n2C` the value was inactive: 87%; for `Cn1c(SCC(=O)Nc2nc3ccccc3s2)ncc(C(=O)Nc2ccc(Cl)cc2)c1=O`, inactive: 78%.
Under `CSc1ncc(Cl)c(C(=O)N(C)c2ccccc2)n1` stands inactive: 110%; under `CCN1CCN(c2ncc3c(n2)CCN(Cc2cccc(F)c2F)C3)CC1`, inactive: 84%; under `COC(=O)c1ccccc1NC(=O)c1nn(C)c2c1COc1ccccc1-2`, inactive: 75%.
On to `Cc1ccccc1N1C(S)=C(C#N)C(=O)NC1c1ccco1` (stereo not given), for which the survival was inactive: 67%.
Turning to `O=c1[nH]nc(SC(F)(F)C(F)(F)C(F)(F)F)c(=O)[nH]1`, the survival is active: 37%.
For `CCc1nn(CC(=O)NCCc2ccc(OC)c(OC)c2)c(=O)c2cc3occc3n12`, the survival is inactive: 131%.
For the compound `CCOC(=O)c1ccc(NC(=O)CSc2nc(-c3ccc(F)cc3)cc(C(F)(F)F)c2C#N)cc1`, the survival is inactive: 71%.
As for `CCOc1ccc(NC(=O)C2=C(C)C(=O)OC23CCC(C)CC3)cc1` (stereo not given), the survival is inactive: 66%.
Under `COc1ccccc1NC(=O)c1ccc(-c2nc(COc3ccc(C)cc3)c(C)o2)cc1` stands inactive: 83%.
As for `Cc1ccc(NC(=O)Nc2c(C)n(C)n(-c3ccccc3)c2=O)c(Cl)c1`, the survival was inactive: 87%.
For `O=C(CSc1ncc2c(n1)-c1cc(Cl)ccc1N(Cc1ccccc1)S2(=O)=O)NCCc1ccccc1`, the survival is inactive: 89%.
As for `CS(=O)(=O)Nc1ccc(-c2nc3ccccc3s2)cc1`, the survival was inactive: 48%.
For `COc1ccc(NC(=O)c2cccn2-c2nnc(N3CCCCC3)s2)c(OC)c1` the value was inactive: 98%; for `CC(NS(=O)(=O)c1ccc(Br)cc1)C(=O)NCc1ccco1` (stereo not given), inactive: 110%; for `CCOC(=O)COc1cc(C)c(Cl)cc1C(=O)c1ccn2nc(-c3ccc(OC)cc3)cc2n1`, inactive: 92%.
Turning to `COc1cc(OC)c(NC(=O)CC(C)S(=O)(=O)c2ccc3c(c2)NC(=O)CO3)cc1Cl` (stereo not given), the survival is inactive: 89%.
As for `CCn1cc(S(=O)(=O)c2ccc(OC)cc2)c(=O)c2cc(F)c(N3CCCCCC3)cc21`, the survival is inactive: 84%.
Under `COc1ccc(S(=O)(=O)NCCc2csc(-c3cccc(F)c3)n2)cc1OC` stands inactive: 80%; under `CCOc1ccc(/C=C/C(=O)Nc2sc3c(c2C(=O)OC)CCCC3)cc1`, inactive: 110%.
Turning to `COc1ccc(-c2nn(-c3ccc(C)c(Cl)c3)c3c2cnc2cc(OC)c(OC)cc23)cc1`, the survival was inactive: 94%.
For `CCOc1ccc2[nH]c(=O)c(CN(CC3COCCO3)C(=O)C3CC3)cc2c1` (stereo not given) the value was inactive: 86%; for `CCOc1cccc(CNC(=O)c2ccc(N3CCCC3)c(NC(=O)Nc3ccccc3CC)c2)c1`, inactive: 71%.
With `CCOC(=O)c1c(C)[nH]c(C)c1S(=O)(=O)N(C)CC(=O)NCc1ccc(C)cc1`, the survival was inactive: 70%.
For the compound `CC(C)c1ccc(NC(=O)Cc2ccc(NC(=O)N3CCCCc4ccccc43)cc2)cc1`, the survival is inactive: 94%.
Turning to `COc1ccc(C2CC(=O)c3cc(-c4nc(-c5ccc(C)cc5)cs4)c(=O)[nH]c3C2)cc1` (stereo not given), the survival is inactive: 76%.
In the case of `CCC1CN(C(=O)NCc2ccc(F)cc2)c2cc(Cl)ccc2O1` (stereo not given), the survival was active: 39%.
With `CCOc1ccc2nc(NCCCNC(=O)c3cc(OC)c(OC)c(OC)c3)c(C#N)cc2c1`, the survival was inactive: 76%.
For the compound `CCCCOc1ccc(CNC(=O)CN2C(=O)CCn3nc(-c4cn(C)c5ccccc45)cc32)cc1`, the survival was inactive: 77%.
`COc1ccc(NC(=O)C2CCCN(S(=O)(=O)c3c(C)[nH]c(=O)[nH]c3=O)C2)cc1` (stereo not given): the survival is inactive: 138%.
As to `CCOc1ccc(NC(=O)CSc2nc3ccsc3c(=O)n2CC)cc1`, the survival is inactive: 89%.
On to `CCN(CC)C(=O)c1ccc2c(c1)N(Cc1ccccc1F)C(=O)c1ccccc1S2=O` (stereo not given), for which the survival was inactive: 125%.
Turning to `Cc1ccc2sc(NC(=O)/C=C/C(=O)O)nc2c1`, the survival is inactive: 102%.
`Cc1ccc(NC(=O)Cn2c(=O)nc(-c3ccccc3)c3ccccc32)cc1`: the survival is inactive: 73%.
For the compound `Cc1cccc(C(=O)n2nc(-c3cccnc3)nc2NCc2ccc(F)cc2)c1`, the survival is inactive: 54%.
As to `CCCCOc1ccc(CNC(=O)c2cnc3sc(N4CCCCCC4)nn3c2=O)cc1`, the survival is inactive: 86%.
On to `CCCCNC(=O)CCn1nc(-c2ccc(Cl)cc2)c2ccccc2c1=O`, for which the survival was inactive: 53%.
As for `CC(C)Cc1nnc(NC(=O)CCCN2C(=O)CCC2=O)s1`, the survival is inactive: 90%.
In the case of `CCN1CCN(c2nc3c(S(=O)(=O)c4ccc(C)cc4)nnn3c3ccsc23)CC1`, the survival was inactive: 65%.
For the compound `CCN(CC)S(=O)(=O)c1ccc2c(c1)N(CC(=O)NCCc1ccccc1)C(=O)CO2`, the survival was inactive: 76%.
For `CCC(Oc1ccccc1)C(=O)Nc1cc(-c2ccccc2F)nn1-c1ccccc1` (stereo not given), the survival is inactive: 122%.
Take `CCC(CC)C(=O)Nc1nnc(C(C)(C)C)s1`: the survival is inactive: 95%.
Turning to `CCOc1ccc2nc(N3CCCC(C(=O)Nc4ccc(CC)cc4)C3)sc2c1` (stereo not given), the survival is inactive: 47%.
With `CCc1ccc2oc(-c3cccc(NC(=O)COc4ccccc4Cl)c3)nc2c1`, the survival was inactive: 57%.
`COc1cccc(NC(=O)Nc2ccc3snnc3c2)c1`: the survival was inactive: 68%.
In the case of `COc1ccc(-c2cc(C)no2)cc1S(=O)(=O)N1CCCC(C)C1` (stereo not given), the survival was inactive: 81%.
Under `Cn1c(=O)[nH]c(=O)c2c1nc(CN1CCN(c3ccccc3)CC1)n2Cc1c(F)cccc1Cl` stands inactive: 83%; under `Cc1cccc(NC(=O)c2ccc3[nH]c(C)cc(=O)c3c2)c1`, inactive: 100%; under `CC(C)(C)c1ccc(C(=O)Nc2ccc(NC(=O)c3ccc(Cl)c(Cl)c3)cc2)cc1`, inactive: 155%.
As for `CCC(=O)N1CCc2cc(S(=O)(=O)NC(Cc3ccccc3)C(=O)NCc3ccccc3OC)ccc21` (stereo not given), the survival was inactive: 66%.
In the case of `CSc1cccc(Nc2cc(C(=O)NC3CCCCC3)c3ccccc3n2)c1`, the survival is inactive: 111%.
Take `COc1ccc(C)cc1NC(=O)Cn1c(=O)oc2cc(S(=O)(=O)N3CCCCCC3)ccc21`: the survival is inactive: 71%.
On to `CCc1ccc2occ(CC(=O)Nc3c(C(=O)c4ccc(F)cc4)oc4ccccc34)c2c1`, for which the survival was inactive: 67%.
Regarding `CCCCCCSc1nc(N)c2c3c(sc2n1)CCCC3C` (stereo not given), the survival was active: -7%.
Take `CC(C)(C)C1CCc2c(sc(NC(=O)c3cc(-c4ccc(F)cc4)on3)c2C#N)C1` (stereo not given): the survival was inactive: 131%.
For `O=C(NC1CCCC1)C(c1cccnc1)N(CCc1ccccc1)C(=O)c1ccco1` (stereo not given), the survival was inactive: 80%.
Consider `CCC(C(=O)NCCc1ccc(OC)c(OC)c1)n1nc(C)c2sc3ccccc3c2c1=O` (stereo not given), for which the survival was inactive: 70%.
Regarding `Cc1cc(C)cc(-n2ccn3cnnc3c2=O)c1`, the survival was inactive: 87%.
Regarding `Cc1ccc(OCC(=O)OCc2cc(=O)n3nc(C4CC4)sc3n2)cc1C`, the survival was inactive: 71%.
For `CCCN(c1ccccc1F)S(=O)(=O)c1cc(-c2cc(C)no2)ccc1C`, the survival was inactive: 94%.
As for `CCOCCCNC(=O)Cn1ncc2c([nH]c3ccc(C)cc32)c1=O`, the survival was inactive: 83%.
Take `COCCN(Cc1ccc(C)c(Br)c1)S(=O)(=O)c1ccc2[nH]c(=O)ccc2c1`: the survival is active: 20%.
Regarding `CCC(C)(C)NC(=O)Cn1c(-c2ccc(C)cc2)noc1=O`, the survival was inactive: 86%.
Under `CC1CCCCC1NC(=O)Cn1nnc(-c2ccc(N(C)C)cc2)n1` (stereo not given) stands inactive: 106%; under `CCOC(=O)c1ccc(NC(=O)c2cc(=O)c3ccc(C)c(C)c3o2)cc1`, active: 45%.
Under `CC(=O)N1CCc2cc(Br)cc(S(=O)(=O)CCC(=O)N3CCN(c4cccc(C)c4C)CC3)c21` stands active: 45%; under `Cn1nc(-c2ccccc2)c(-c2ccccc2)c(C(=O)Nc2ccccc2C(N)=O)c1=O`, inactive: 107%; under `CCCN(CCC)c1cc(C)nc2nc(-c3ccc(C(C)(C)C)cc3)nn12`, inactive: 103%.
As to `Cc1cc(C)cc(N2C(=O)CSC23C(=O)N(CC(N)=O)c2ccccc23)c1` (stereo not given), the survival is inactive: 98%.
Regarding `CCOCCCNC(=O)Cn1ncc2c([nH]c3ccccc32)c1=O`, the survival was inactive: 95%.
Turning to `Clc1ccccc1CNCCCSc1nnnn1-c1ccccc1`, the survival is inactive: 57%.
For the compound `O=C1CC2(Oc3ccccc3O2)C(=O)NN1`, the survival is inactive: 101%.
Consider `Cc1noc(C)c1S(=O)(=O)N(CC(=O)Nc1ccc(C(F)(F)F)cc1)c1ccc(C(C)C)cc1`, for which the survival is inactive: 55%.
As to `CCc1ccccc1NC(=O)N1CCN(Cc2nc3ccc(C)cc3o2)CC1`, the survival was inactive: 84%.
In the case of `Cn1c(SCC(=O)N2CCCc3ccccc32)nnc1-c1ccccc1N`, the survival was inactive: 92%.
Consider `Cc1ccc(-n2ncc3c(Nc4ccc(Oc5ccccc5)cc4)ncnc32)cc1`, for which the survival was inactive: 68%.
For the compound `CC(C)Cc1nn2c(=O)cc(COC(=O)c3cccc(NC(=O)c4ccccc4)c3)nc2s1`, the survival is inactive: 75%.
As for `COc1ccc(NC(=O)c2cc(C3CC3)nc3c2c(C)nn3-c2ccccc2)c(OC)c1`, the survival is active: 37%.
With `CCCN(CCC)CCNC(=O)c1cc2c(=O)oc3ccc(C)cc3c2s1`, the survival is inactive: 116%.
For the compound `Cc1c(C(=O)Nc2cccc(C(F)(F)F)c2)sc2nc3n(c(=O)c12)CCC3`, the survival is inactive: 65%.
With `Cc1cccc(Cn2cc3c(=O)n(CC(=O)Nc4cccc(C)c4C)nc-3c3cc(F)ccc32)c1`, the survival was inactive: 80%.
In the case of `Cc1cccc(N2CCN(C(=O)c3cc4ccc5cccnc5c4[nH]3)CC2)c1C`, the survival was inactive: 78%.
Under `CCSc1nnc(COc2ccccc2)n1CC` stands inactive: 70%; under `CCOc1ccccc1NC(=O)CSc1cn(CC(=O)N2CCCCCC2)c2ccccc12`, inactive: 92%.
`COc1cc(OC)c(NC(=O)C(CC(C)C)N2Cc3ccccc3C2=O)cc1Cl` (stereo not given): the survival was inactive: 122%.
Under `Cc1ccc(NC(=O)CCN2C(=O)c3ccccc3Sc3ncccc32)cc1` stands inactive: 66%.
For `CCOC(=O)Cn1nnnc1C(CC)N(Cc1cccnc1)Cc1cc2cc(C)ccc2[nH]c1=O` (stereo not given), the survival is inactive: 78%.
